# From the supplement of paper PMC3334620
# Whole data set: some 33,000 sequences, median “E-score (-0.5 to 0.5)” near -0.053, cut for the highest 2% near 0.37. This is one part of the list.
# Biological target: Hap1 (UniProt P0CE41)
# Assay: PBM E-score (8-mer binding enrichment) (E-score (-0.5 to 0.5)); higher = stronger / more preferred TF binding; most listed sequences are background and not binding sites
# Conditions: protein concentration: 200 nM; construct: GST-DNA-binding domain
# Summary of the method: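 Each ungapped eight-base word and its reverse complement, pooled, received an E-score from the Universal PBM Analysis Suite. Underlying scans, normalised with masliner, recorded fluorescent anti-GST bound to GST-tagged yeast transcription factors. These were applied at about 100-200 nM to universal all-10-mer Agilent arrays double-stranded by primer extension.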
# Chain of UniProt P0CE41 (P0CE41 whole entry): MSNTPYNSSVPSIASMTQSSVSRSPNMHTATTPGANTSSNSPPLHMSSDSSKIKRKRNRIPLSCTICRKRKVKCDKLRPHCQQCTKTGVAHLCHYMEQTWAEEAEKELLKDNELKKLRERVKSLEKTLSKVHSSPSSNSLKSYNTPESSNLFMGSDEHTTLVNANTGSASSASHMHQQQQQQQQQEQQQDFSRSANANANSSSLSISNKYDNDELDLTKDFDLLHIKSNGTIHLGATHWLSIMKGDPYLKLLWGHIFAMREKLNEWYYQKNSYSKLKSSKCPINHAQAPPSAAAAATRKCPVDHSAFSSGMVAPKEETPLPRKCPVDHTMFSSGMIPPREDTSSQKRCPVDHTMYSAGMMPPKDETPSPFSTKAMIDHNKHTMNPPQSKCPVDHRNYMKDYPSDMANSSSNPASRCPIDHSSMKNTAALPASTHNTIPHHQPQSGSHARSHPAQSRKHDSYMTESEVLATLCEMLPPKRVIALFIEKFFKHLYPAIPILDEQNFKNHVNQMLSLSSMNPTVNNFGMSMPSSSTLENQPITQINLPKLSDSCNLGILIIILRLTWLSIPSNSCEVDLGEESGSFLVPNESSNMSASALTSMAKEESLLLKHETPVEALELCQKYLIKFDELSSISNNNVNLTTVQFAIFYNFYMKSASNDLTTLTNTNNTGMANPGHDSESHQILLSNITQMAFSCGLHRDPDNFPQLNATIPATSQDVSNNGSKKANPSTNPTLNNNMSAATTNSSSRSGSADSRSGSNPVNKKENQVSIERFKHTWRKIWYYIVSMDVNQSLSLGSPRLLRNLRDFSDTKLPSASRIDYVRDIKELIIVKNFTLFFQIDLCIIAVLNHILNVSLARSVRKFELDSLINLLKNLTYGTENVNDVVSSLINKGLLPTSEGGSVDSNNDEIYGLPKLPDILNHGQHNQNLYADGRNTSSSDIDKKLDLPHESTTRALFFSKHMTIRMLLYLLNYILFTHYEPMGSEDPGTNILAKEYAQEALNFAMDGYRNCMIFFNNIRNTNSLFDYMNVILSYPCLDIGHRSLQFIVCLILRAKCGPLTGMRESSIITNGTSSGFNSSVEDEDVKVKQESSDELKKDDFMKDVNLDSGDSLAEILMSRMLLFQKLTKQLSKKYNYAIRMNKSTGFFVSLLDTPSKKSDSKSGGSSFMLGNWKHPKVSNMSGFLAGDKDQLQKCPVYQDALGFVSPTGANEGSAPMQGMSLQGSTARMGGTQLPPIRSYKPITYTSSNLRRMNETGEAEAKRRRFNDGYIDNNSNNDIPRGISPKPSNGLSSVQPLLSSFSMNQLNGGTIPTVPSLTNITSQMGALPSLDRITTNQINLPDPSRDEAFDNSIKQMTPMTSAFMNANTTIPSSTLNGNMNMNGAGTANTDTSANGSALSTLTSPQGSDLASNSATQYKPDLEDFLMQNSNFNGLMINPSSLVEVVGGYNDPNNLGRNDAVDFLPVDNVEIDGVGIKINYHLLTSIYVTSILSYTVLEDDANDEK
row,Sequence,PBM E-score
1,CACACATA,-0.0995
2,CTGTGCAA,-0.308
3,CCGTGACC,0.226
4,CCTGAGCG,-0.161
5,TACGTCAA,-0.214
6,ATTCCTTA,-0.206
7,ACCATTAA,0.139
8,AACCCAGA,-0.176
9,AACTAATG,-0.0714
10,GCACCGGC,0.291
11,TACAAGTA,-0.259
12,CGTGCCGA,0.164
13,ATCCTACG,-0.0295
14,AGGGCGTA,-0.137
15,ATCTACAT,-0.134
16,GGGTACGA,-0.0424
17,ATATCCAG,0.0668
18,CCCACTTC,0.0403
19,ATAGGGAG,-0.147
20,ATAATCCA,-0.0585
21,CCGGTCGA,0.333
22,AAACATAA,-0.242
23,TAAACATA,0.03
24,ATTTGTTG,-0.0781
25,ACTAGTCT,-0.29

row,Sequence,PBM E-score
1,AATGGAGA,0.0809
2,AGGCAAAG,-0.246
3,CGGTAGGA,0.115
4,GACCCTGC,0.0209
5,AGGGATAA,-0.282
6,ATTCACGA,-0.0824
7,GCCGCCGA,0.26
8,ATTAAGTA,-0.00434
9,CGTTAATA,0.244
10,GGGACAAC,-0.166
11,CGGTTAGC,0.13
12,TATGACAA,-0.185
13,CAATCAGG,-0.151
14,GCCGGCCC,0.372
15,GACTGTCC,0.0286
16,CAAGCTTA,0.0563
17,GGGAAAAC,0.12
18,ACCATTCG,-0.0753
19,CGTAAGTC,0.129
20,ATTGCAAA,-0.0295
21,AATCTGAG,-0.0511
22,CTTTAAAA,0.0441
23,GTGCCCAA,-0.223
24,GAGTATAC,-0.0621
25,CAATACGA,-0.00494

row,Sequence,PBM E-score
1,ACGGTCTG,-0.122
2,CAGCTACA,-0.156
3,GCCTTGCC,-0.0796
4,GACTAAGC,0.0686
5,TCTGTTAA,-0.142
6,AAACCCCT,-0.0943
7,ATTAGAAC,0.0628
8,ACATGAGA,-0.175
9,AGCACGCA,-0.287
10,GGTAAGCA,-0.102
11,ACGGGTTG,-0.145
12,ATGGGCGC,-0.137
13,CTACGCCA,-0.263
14,CCGAAGTC,0.318
15,GCACACCC,-0.223
16,ACTACGCT,-0.102
17,TGCATCCA,-0.202
18,TCAGGGCA,-0.199
19,CTGTTATA,0.0864
20,ACGACGAG,-0.279
21,AAGCTATT,-0.126
22,GATTGTAA,-0.00165
23,AAACGGAG,0.258
24,CAACTTAG,-0.033
25,GATGTTCA,-0.00017

row,Sequence,PBM E-score
1,GACGGTCC,0.182
2,ACAAGTTG,-0.028
3,AACAAACA,-0.0847
4,AAATTTAG,0.044
5,GCCAACGA,-0.115
6,CCGGAGCG,0.359
7,CAACGGGC,0.153
8,CCTGCGTC,-0.00919
9,CAGAGCTC,-0.0017
10,GCACCAAC,0.0137
11,GCGCGACA,0.143
12,GAGTTACC,0.0616
13,ACGGTTCA,0.0385
14,ACGGGCTC,0.0484
15,AGGCACAA,-0.0993
16,AGAGATCT,-0.171
17,GAACCGTC,0.0767
18,GGGAATGA,0.0402
19,GAGGTGCC,0.0217
20,GCCACTTA,-0.117
21,TACGACTA,-0.109
22,ATCTATTG,-0.0635
23,AGACGCGG,0.0872
24,CCCCACTA,-0.0251
25,CAGCATAC,-0.247

row,Sequence,PBM E-score
1,CAACCTCA,-0.276
2,CGGAAGAA,0.305
3,CTACTGCC,-0.00047
4,GCCCTTGA,-0.242
5,CCCGCAAC,0.277
6,TAGATGAA,-0.196
7,ACGCTAGT,-0.105
8,CGGTGGCC,0.234
9,AAAAACTG,-0.2
10,CGGCAGGA,0.175
11,GAGGCTAA,-0.0306
12,AAGCCTCT,-0.281
13,AAGGTGAG,-0.173
14,AAGCTGCA,-0.039
15,CAAATTGA,-0.173
16,TACGAACA,-0.138
17,TTGTTAAA,0.0915
18,CATAATCC,-0.0185
19,AGAACAGG,-0.156
20,GCGCAGTA,0.0654
21,ACTACGTC,-0.0459
22,GATCGTCC,0.164
23,CTTGCCCC,0.0369
24,ATATCTTC,0.152
25,GAATGGGA,-0.138

row,Sequence,PBM E-score
1,CACGGTTC,-0.0838
2,CCGAATTA,0.282
3,AAGCACCC,-0.0703
4,ATCGAACG,-0.121
5,AAATATGA,-0.252
6,ATGACGCC,-0.0669
7,ACCTACCT,0.0276
8,ACATCTGC,-0.281
9,GGTGTCGA,-0.193
10,CTGAGGAC,-0.0707
11,ACATAGTA,-0.133
12,AACTTAAT,0.0202
13,AACATATG,-0.123
14,CCAATCAA,0.00077
15,AGGGTAAA,-0.156
16,CTATGCGA,-0.185
17,CCTTGAGA,-0.0628
18,ACCAGATC,-0.0237
19,CATGACCA,-0.294
20,ATAATCAT,-0.00531
21,CCCGTGCG,0.154
22,GGCTAGCA,-0.00251
23,ACAACGCG,0.0255
24,GAGTGTAA,-0.261
25,AGGGAACC,-0.0577

row,Sequence,PBM E-score
1,CGATCCTA,-0.0276
2,GAGCTCGC,0.163
3,AAGGAAAA,-0.231
4,CCAGTATC,0.074
5,AAGGCGGC,-0.0382
6,AGGGCAAT,0.022
7,CCGTTATA,0.311
8,ACACAGAG,-0.196
9,AGGACAAT,-0.104
10,ATGCATTA,-0.058
11,GATAGCAA,-0.111
12,ACTGAGCC,-0.0979
13,AGAGGAAA,-0.0424
14,CTGTAGAA,-0.0892
15,GAGTCAGA,-0.0372
16,AACTCCGA,0.474
17,ACTAACAG,-0.0789
18,CCAATTAA,-0.169
19,AAAAACGG,0.105
20,AGTGTTAA,-0.0373
21,AAAAGGCC,0.0671
22,AGAGAGAA,-0.177
23,CTGATGGA,-0.236
24,CAATAAAA,-0.174
25,CCGGCTGC,0.23

row,Sequence,PBM E-score
1,AATCTCTG,-0.274
2,AAAGCTTT,0.21
3,ACAGCCCG,0.144
4,AAAACAGT,0.0339
5,ATAGTCTC,0.0143
6,ACTCAGAC,-0.276
7,AGTACGGA,0.258
8,AGTCTGAA,-0.243
9,ACGCCTTG,-0.0738
10,AGCTAAGG,-0.203
11,ACCACCAC,-4e-05
12,AGAAATTC,-0.0807
13,AAATCGCA,-0.0497
14,CAGTGCCG,0.229
15,GCAGATTA,0.0918
16,AATTATTC,-0.0028
17,CGGGGTAG,0.127
18,CAAGGTGG,-0.0167
19,CACAACGA,-0.0452
20,CGCTGCCC,0.0735
21,CCTTGTGA,-0.064
22,CGGTTTCA,0.263
23,ACAATCCG,0.219
24,GGTAAAAC,0.0436
25,ATGGAGGA,-0.136

row,Sequence,PBM E-score
1,AGGGCGCA,-0.107
2,CTGAGCGA,-0.117
3,GAGGCCTA,-0.152
4,CACGTATC,-0.0777
5,CAGGGTCA,-0.178
6,CAGAGAGA,-0.271
7,ATAACTGG,-0.00522
8,GAAGGAGA,-0.221
9,AAATCCAA,-0.0526
10,GGAGAACA,0.0816
11,CAAACCTG,-0.189
12,CTAGCAAG,-0.275
13,ATCAAAGA,-0.222
14,GATTCGGC,0.341
15,GCCTATCC,-0.0494
16,CCCTAGAG,-0.13
17,TAACGACA,-0.0973
18,GTAGCTCA,-0.14
19,AGGATGGA,-0.0197
20,AGTACCCC,0.0758
21,ATTGCAAT,0.0977
22,ATCGACAA,0.0897
23,GGATAACA,-0.00353
24,ACGTTCAA,-0.152
25,AGCATGTC,-0.0508

row,Sequence,PBM E-score
1,ATATTAGG,-0.0872
2,GACTAGAA,-0.0358
3,ATCGGCGG,0.408
4,CTTGGGTA,-0.108
5,CGGACCCC,0.233
6,ACATCAGC,0.0244
7,TATAGGAA,-0.189
8,GCCACTCA,-0.0199
9,GACTCACC,-0.109
10,CTTCGAAC,-0.0233
11,GGACTGCA,-0.296
12,GTATCAGA,-0.12
13,CAGTTGTC,-0.0876
14,AGCCTGCG,-0.0999
15,GAGTGGTA,-0.111
16,GTCCCCAC,-0.206
17,ATGTCAAT,-0.0437
18,AATCGAAC,-0.0758
19,ATTTGGGA,-0.117
20,ACGTGCCT,-0.0713
21,GTTACAAC,0.0652
22,ATCTTCGG,0.322
23,AAACTAAT,0.117
24,ATCCCATC,-0.227
25,CCTGATCG,-0.074

row,Sequence,PBM E-score
1,TCCTGCCA,-0.12
2,GAGCTAAA,0.0627
3,ATTTGTGA,-0.191
4,AAATTGAT,0.06
5,ATGGAAAA,0.0624
6,ACCTCCAA,-0.244
7,ACGGGTCA,-0.107
8,GACCAAGC,-0.0246
9,AATAACAC,0.135
10,ACATCAAC,0.0757
11,AAACCCAG,-0.208
12,CCACCAAG,-0.066
13,GGACAAAC,0.00614
14,AACATCCA,-0.154
15,ATCAATGC,0.0363
16,ATAGCCAG,-0.293
17,GAAAAGGA,-0.0758
18,CAACATCC,-0.0049
19,CGACAAGC,0.0766
20,CGCTGTGC,0.142
21,CCGGGAGC,0.278
22,CCAAAGTA,-0.0608
23,AGGCTGAG,-0.0777
24,CAAACCAC,-0.109
25,ACATCAAT,-0.14

row,Sequence,PBM E-score
1,GAAGTTAA,-0.126
2,AAATACAT,-0.216
3,ACAACTGC,-0.232
4,AGGGACCT,-0.127
5,ATGATCTG,-0.105
6,TATGGCGA,-0.146
7,CCCGATGA,0.285
8,ATAGAGAA,-0.183
9,CAGTCAAA,-0.179
10,ACAGGCAC,-0.111
11,CGTGACTA,-0.0182
12,CTAATCGA,-0.014
13,AATACCGA,0.296
14,ACTCTGAA,-0.0321
15,AGATAAGA,0.062
16,AGCGCAGC,-0.0998
17,CTTACAGA,-0.141
18,CAATGCAG,-0.128
19,AGGAGCAT,-0.14
20,AGTTAACC,0.184
21,CGAGACGC,0.155
22,AATACATT,-0.126
23,CGCATAGA,-0.00989
24,AAACGCTT,-0.151
25,TCTTAACA,-0.321

row,Sequence,PBM E-score
1,CACTTGAA,-0.291
2,TCGGGTCA,0.356
3,CGCTATAA,0.0954
4,ATCCGCCG,0.375
5,AGTTGTTA,-0.108
6,AAGCGTGT,-0.12
7,AGCCAGTG,-0.128
8,CCCTGCGG,0.133
9,AACACTCT,-0.0636
10,ACAATGTC,-0.108
11,AAAAGTGG,0.0261
12,CCAAATGC,-0.0569
13,AGTACTAT,-0.151
14,ATTACTCA,-0.105
15,ACTATGCC,-0.0432
16,GACCGATC,0.341
17,ATTGAATG,-0.104
18,AAGGTCCA,0.00642
19,GTGTTGAA,-0.109
20,AGAAGCCC,0.224
21,CATAGGTC,-0.118
22,GGGCCCCA,0.00501
23,CAAGTACG,-0.309
24,AGTCCTCA,0.0165
25,ATCCTGCA,-0.24

row,Sequence,PBM E-score
1,CGCAGACG,-0.0806
2,CAGACGAG,-0.149
3,CGCTTAAC,0.0905
4,CCGTATCG,0.225
5,CCGCGCAG,0.183
6,ATTCGCGC,0.116
7,CCGTCGTC,0.151
8,GGGCCACA,0.0584
9,CCCCCTTA,-0.257
10,AGCTTGAC,-0.138
11,GAATCACA,0.13
12,CCCTACTC,-0.0316
13,AATCTACA,-0.125
14,AGTGACAC,-0.105
15,ACCTTAGG,-0.0886
16,GGCGTTAC,0.185
17,ACGTAGGC,-0.231
18,AGATACCG,0.319
19,CAATCGTC,-0.167
